Assay results as given in patent publication US8759400B2, “Histone deacetylase inhibitors for enhancing activity of antifungal agents” (MethylGene Inc., priority 2005, dated 2014).

Columns and labels:
C. glabrata (ATCC 90030) = experiment: MIC80 and checkerboard synergy with antifungal agents; type: cell-based, Candida glabrata; conditions: Nakaseomyces glabratus, ATCC90030; C. glabrata (90030); read-out: Cpd 4 MIC
[1] = tested on: C. albicans (ATCC 90028), C. glabrata (ATCC 90030), C. parapsilosis (ATCC 22019), or C. tropicalis (ATCC 750); experiment: Synergy of Compound 4 with antifungals of different mechanisms, broth microdilution
C. albicans (ATCC 90028) = experiment: MIC80 and checkerboard synergy with antifungal agents; type: cell-based; conditions: Candida albicans, ATCC90028; C. albicans (90028); read-out: Cpd 4 MIC

## O=C(Cc1ccc(CCCCc2ccccc2)cc1)NO [Cpd 4]
C. glabrata (ATCC 90030)
  MIC: 3.1 to 6.3 µg/mL
[1]; all azoles tested, all Candida species
  synergy with azoles: synergized
[1]; ergosterol synthesis inhibitors not acting on C-14 demethylase
  synergy with terbinafine and fenpropimorph: synergized
[1]; mechanism outside the ergosterol synthesis pathway
  synergy with nikkomycin: Synergy was also observed
[1]; mechanisms outside the ergosterol synthesis pathway
  synergy with amphotericin B, caspofungin, or 5-fluorocytosine: did not synergize
C. albicans (ATCC 90028)
  MIC: 6.3 µg/mL
